Reference: the supplement of paper PMC3334620
Whole data set: some 33,000 sequences, median “E-score (-0.5 to 0.5)” near -0.01, cut for the highest 2% near 0.26. Some of the results follow.

Biological target: Ste12 (UniProt P13574)
Experiment: PBM E-score (8-mer binding enrichment) (E-score (-0.5 to 0.5)); higher = stronger / more preferred TF binding; most listed sequences are background and not binding sites
Settings: protein concentration: 200 nM; construct: GST-DNA-binding domain
Outline: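 Bound GST-tagged yeast transcription factors, applied at about 100-200 nM to double-stranded universal all-10-mer Agilent arrays, were detected with fluorescent anti-GST. Scans were normalised with masliner. A modified Wilcoxon-Mann-Whitney statistic, the E-score, was assigned to each ungapped eight-base word pooled with its reverse complement by the Universal PBM Analysis Suite.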

Sequence	PBM E-score
CCGATGTC	-0.0614
CAGCTAAC	-0.238
ACGCCAGG	-0.121
AACTTACT	-0.117
GGAATGCC	-0.071
CCACTGCC	-0.133
CTCAAGAA	0.0605
CATGGAAC	-0.045
CTTCTAGC	-0.0568
GGATGAAA	0.395
GATAGCGC	-0.00959
AGATGGCC	-0.111
ACTACTCG	0.186
CCGAAGGC	-0.246
ATAACGCG	0.0416
AACGCAAA	0.112
GCATTAAA	0.111
CGGCGTAC	-0.171
AGAAGTGA	-0.0352
ATCTTAGC	-0.177
ACAAAAAT	0.288
AACACCAT	0.0806
AACATATT	0.0908
GGTCATTA	-0.0797
ACGCCGCT	0.0963

Sequence	PBM E-score
CACCGTGA	0.0227
ACCCGCAG	0.0757
AAACCTAC	0.17
ATGATCAC	-0.0877
ACGCAAGC	-0.203
TCTTCTAA	0.194
CATAGTCC	-0.238
AGAACCAT	-0.0343
GATCTGCA	-0.0831
TAATTTAA	0.3
AGCAGTTA	-0.104
AATACCTC	0.0391
CTTCTCTA	-0.0467
ACTAAGGG	-0.102
AGAGTACC	-0.0568
AAGCCGCC	-0.16
AGAATAGA	0.0769
ACCAGCAT	0.118
AGGATACT	-0.202
ACGCATTA	-0.0496
ATTTAGGG	0.0145
AGAGGGCT	-0.144
AACGTTCT	0.184
ATGCCATA	-0.077
CCGTCACC	-0.005

Sequence	PBM E-score
ACATCAGG	0.0338
CGGATGTC	0.0627
ACGGAAGT	-0.00553
GCTGAATA	0.0415
AATGGTCA	0.0979
TCGACAGA	-0.0176
CGCGACCC	-0.0436
TGCTAAAA	-0.0127
CAATTCTG	0.176
GATCGGCA	-0.0748
AAAAAAGC	0.143
CACTATCC	-0.0005
CCGATGGC	-0.0702
TAGATCGA	0.0552
GGGAGAAC	-0.0492
GATTGCTA	-0.106
AGCCCTTG	-0.175
GTGTGAAC	0.169
AACCCTGT	0.11
ACTTGCAA	0.185
AAGGTAAC	0.0901
TGGGCACA	-0.0238
ATGGGCAA	0.0141
ATTGTTTG	0.184
TCAGTTCA	0.0814

Sequence	PBM E-score
CAGGGACA	-0.142
GTATTTCA	0.1
AGCTCGGA	-0.0598
CGCACGCA	-0.222
ACGGATTC	0.0159
TATGCGGA	0.0873
ATCTACAG	-0.0482
CAATGTGA	0.117
GAGCTCAC	-0.0841
AGACGGGC	-0.0692
AAGTCTCT	-0.0975
CCTACTTA	-0.00929
ACAGACAA	0.144
GCTGGCCA	-0.00597
ACCATCCT	-0.131
ACCAAGGT	-0.0737
TCTGTAAA	0.15
AAATATCG	0.0668
CGCTGGGA	-0.148
CGTTGTTA	0.0606
GAGGCGCC	-0.0886
CGAGTACG	-0.163
CAACTACG	-0.0186
TAGGAAGA	-0.204
AGTGTTGG	-0.0688

Sequence	PBM E-score
CACCCCAC	0.225
AACAGCGT	0.0391
CGTGACGC	0.0399
CAAACCCC	-0.0764
AATCAGCT	0.0669
ACAAAGAA	0.215
GAATAAGC	-0.0403
GATCGGAA	0.0696
ATTAACTG	0.187
GATAATGC	-0.0128
GTCTCCTA	-0.229
CTGAGGCC	-0.243
TGCTAGAA	-0.0323
CAGACACA	0.139
AGTTGCTA	0.0735
CTAGGGTC	-0.253
CACGGGCG	0.00735
AGCCTTGA	-0.174
AGGCACAG	-0.206
ATCGGTAA	0.16
TCACTCGA	-0.213
CGAATAAA	0.182
CGAGGCAA	0.159
ATCGCTAA	-0.0505
GCACACGA	-0.088

Sequence	PBM E-score
CGAGGGCA	0.0137
AACTCGCC	-0.0534
ACTAGACC	0.0423
ATCGGTGC	-0.0807
AATCATTC	0.0594
ACACAACG	0.128
ATACAAAG	0.0824
ACTTACCG	0.105
CACCTGTA	-0.0729
GGAGGCAC	-0.16
AAGCCGTA	0.0446
AAGGCAGT	-0.0357
AAGGCATA	-0.0705
GTGGGTCA	-0.0954
ACGTACGG	-0.111
ACGCATGG	-0.0495
GATATCGC	0.0363
CTGCTAAG	-0.129
GAATAGAA	0.135
AGACCGAA	0.0491
ACTCGATG	-0.159
CAGGCCTG	-0.0619
CGCAGGGA	-0.136
AAAACCCA	0.146
GCTCGCAA	0.0496

Sequence	PBM E-score
ACTGGGTG	-0.107
ACTCTTTC	-0.0871
ATCTAGAA	0.0817
CCTTCTGA	-0.0508
CCTCAGGA	-0.0519
ATGATAAA	0.209
ATATACGG	-0.0537
CCCCAAAA	0.0924
CATCTAGG	0.0212
CTTCGTAA	-0.00738
CCTAATAA	0.13
GGATACGA	-0.235
ATAAGCCC	-0.0186
AACTGGGA	-0.13
GCTACCCA	-0.191
AAAAAGGG	0.218
AGGGAAAA	0.209
AGAGGGTC	-0.115
GACAGAGC	0.0393
CAACACAC	0.0252
AAGTCGTC	-0.00218
CTGCATTC	0.0326
TAGATCTA	0.0651
ATATCAAA	0.3
AGCCGTTC	-0.11

Sequence	PBM E-score
CGCAAGCG	-0.225
GGTCGGAC	0.0322
TACCCCTA	0.0164
AGTGTAGA	0.0573
CCACACCG	0.0791
CCTGCGAC	-0.0666
CAGCAGCG	-0.0218
AGCCTCTC	-0.234
AGCCAGGG	-0.278
ACTGGATG	-0.169
AATGCAGT	-1e-05
CCATGTGC	-0.0407
GACCCCAA	-0.144
AGGTCGGG	-0.125
GACGCTCA	-0.0918
GCAGAAGC	-0.185
ACAGTTAT	0.105
AGCTAGCA	-0.272
AGATGTTG	-0.0675
ATGAGGGA	-0.015
AGTTTAAA	0.259
GAATGTGC	0.06
ATCATGAA	0.0529
ACTGGACC	-0.219
GGCCCAAA	0.0386

Sequence	PBM E-score
CAGCGCAA	-0.0584
AAGACATG	-0.137
CTTGGGGC	0.0678
CGGGCCAG	-0.0756
CAGTCCAG	-0.271
AGATAAAC	0.169
CGTAAGCA	-0.0602
ACGGGCGC	0.0135
CAGCCTAC	0.0667
CCTCGCCG	-0.286
CGCGGGCA	0.134
CTCTACGC	-0.0707
AAGCGTAT	-0.0659
AATTAACT	0.0529
AAGCGCTA	0.0374
ACGCGTAC	-0.107
GATACGCC	0.153
AGCACGTA	-0.0572
GCCCCTAA	0.0808
